Literature values in patent US20120159656A1, “COMPOSITIONS AND METHODS FOR […] DEFECTS” (Galenea Corp., priority 2009, published 2012).

Tested on: gamma oscillation power in various brain regions
Details: various brain regions of rodents; cited from earlier work

Compound: c1ccc(C2(N3CCCCC3)CCCCC2)cc1 [PCP, phencyclidine]
- gamma oscillation power in response to NMDA-R antagonists: Increases in gamma oscillation power
